According to PubChem BioAssay AID1963576 (National Center for Advancing Translational Sciences (NCATS), 2024):
Among all 46,000 compounds or so, about 60 (0.1%) were called active. About 3% were inconclusive and are not listed. Calls come from the whole dose curve; as a rule, active = well fitted inhibition curve with a large enough effect; inconclusive = small, poorly fitted or top-dose-only effect; inactive = no such curve, though single readings can be large or run the other way. The list shows a part of the results.

Assay: Primary qHTS assay for Inhibitors of ovarian cancer metastasis using an organotypic tumor microenvironment (TME) model.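 For activity change, negative = inhibition: plate controls were DMSO wells for no effect and tomatine positive control wells for full effect.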 Note: nearly all actives have a fitted effect of over 65% in size.
Details: SKOV3ip1-GFP adhesion/invasion on 3D omental model, fluorescence; series mostly up to 45.8 µM; activity change, negative = inhibition: at the top concentration
How it was run: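 Adhesion/invasion was scored as fixed GFP-labeled SKOV3ip1 cell counts (488/509 nm), normalized to DMSO and tomatine controls. Cancer cells in serum-free medium, with four compound doses (0.36-46 umol/L), sat 2 hr at RT then 16 hr at 37 C on a 48 hr fibroblast/mesothelial/ECM culture.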

Activity change, negative = inhibition, inactive:
CCOc1ccc(NC(=O)Cn2cc(C(=O)c3ccc(CC)cc3)c(=O)c3cc4c(cc32)OCO4)cc1 17.8%
COc1ccc2c(c1)CC(C(=O)NCCN1CCN(c3ccccc3F)CC1)CO2 (stereo unspecified) -2.13%
CCCC(=O)N1CCc2cc(OC)c(OC)cc2C1COc1ccc2c(C)cc(=O)oc2c1 (stereo unspecified) 1.35%
O=C(Nc1c(C(=O)c2ccc(Cl)cc2)oc2ccccc12)c1cc(=O)c2ccccc2o1 0.475%
Cn1nnnc1SCCCNCc1cccc(OCc2ccccc2F)c1 4.88%
Cc1ccc(/C=C(\C#N)C(=O)Nc2ccc(Br)cc2)o1 -0.342%
O=C(Cn1cc(SCc2ccc(Br)cc2)c2ccccc21)N1CCCCC1 -5.45%
CCC(Sc1ncc(S(=O)(=O)c2ccc(C)cc2)c(=O)[nH]1)C(=O)Nc1cc(C)ccc1C (stereo unspecified) -7.86%
COc1ccc(NC(=O)c2ccco2)cc1NC(=O)c1ccc(C)c(C)c1 9.01%
CCN(C(=O)CSc1nc2ccccc2n1Cc1ccc(C(=O)OC)cc1)c1ccccc1 2.23%
Cc1ccc(-c2cc(C(F)(F)F)n3nc(-c4cccc(Br)c4)cc3n2)cc1 -10.7%
CC(C)c1cc(-c2n[nH]c(=O)n2-c2ccc3c(ccn3C)c2)c(O)cc1O 6.13%
COc1ccc(N2CCN(C(=O)CN3CCSc4ccccc43)CC2)cc1 5.97%
O=C(Cn1nc(Cc2ccncc2)c2ccccc2c1=O)Nc1cccc(C(F)(F)F)c1 25%
COc1ccccc1CNC(=O)Cn1c(-c2ccc(F)cc2)cc(C(C)=O)c1C 6.95%
Cc1ccc(CSCCC(=O)N2CCN(c3ccc(F)cc3)CC2)cc1 2.5%
CCN(CC)CCN(C(=O)c1ccco1)c1nc2c(C)c(C)ccc2s1 -5.64%
CNC(=O)c1c(NC(=O)c2cc(=O)c3cc(C)c(C)cc3o2)sc2c1CCCC2 -2.48%
Cc1cccc(C)c1Nc1c(-c2ccc(N3CCOCC3)cc2)nc2ncccn12 2.94%
Cc1ccc(NC(=O)C2CCCN(c3ncnc4onc(C)c34)C2)c(Cl)c1 (stereo unspecified) 0.271%
O=C(O)C1CCCN(CCC=C(c2ccccc2)c2ccccc2)C1 (stereo unspecified) -13.6%
COc1ccc(Cl)cc1NC(=O)Nc1c[nH]c(=O)[nH]c1=O 7.17%
Cc1c(Cl)cccc1N1CCn2c1nc1c2c(=O)n(CC(=O)O)c(=O)n1C 0.707%
CC1(C)OC2CC3C4CC(F)C5=CC(=O)C=CC5(C)C4C(O)CC3(C)[C@]2(C(=O)CO)O1 (stereo partly specified) 22.3%
CN(C)S(=O)(=O)c1ccc(C(=O)NCCSc2c(-c3ccc(Br)cc3)[nH]c3ccccc23)cc1 11%
COc1ccccc1NC(=O)c1nn(C)c2c1CS(=O)(=O)c1ccccc1-2 -14.4%
CCN(C(=O)CCS(=O)(=O)c1ccc2c(c1)CCN2C(C)=O)c1cccc(C(F)(F)F)c1 10.1%
O=C(NCC(c1cccnc1)N1CCc2ccccc2C1)C(=O)Nc1ccccc1F (stereo unspecified) 3.87%
CSc1ccc(CNC(=O)Cn2c(-c3cccs3)cc3cc(F)ccc32)cc1 -2.3%
O=C(/C=C\c1ccc2c(c1)OCO2)NC1CC(=O)N(c2ccccc2)C1 (stereo unspecified) -4.79%
CC1Cc2cc(S(=O)(=O)CCC(=O)Nc3ccc(F)cc3)ccc2N1C(=O)C1CC1 (stereo unspecified) -5.97%
Cc1ccccc1-c1nnc(SCC(=O)N(C)c2ccccc2)o1 25.8%
Cc1ccc(S(=O)(=O)Nc2cc3c(C(=O)OCc4ccccc4)c(C)oc3c3ccccc23)c(C)c1 4.06%
Cc1cccc(OCC(=O)Nc2cccc(C(=O)OCc3cc(=O)n4nc(C(C)C)sc4n3)c2)c1 -0.256%
CCCN(CCC)C(=O)Cn1c(=O)n(CCCCCC(=O)Nc2ccccc2)c(=O)c2sccc21 -9.79%
COc1ccc2c(c1)c1c(c(=O)n(-c3ccccc3C)c(=O)n1CC(N)=O)n2C 13.6%
COC(=O)c1ccc(NC(=O)Cn2ccn3nc(-c4ccc(OC)cc4)cc3c2=O)cc1 3.19%
Cc1ccc(/C=C/c2onc(C)c2S(=O)(=O)N2CCC(C(=O)Nc3ccc(OC(F)(F)F)cc3)CC2)cc1 -9.33%
COc1ccc(NC(=O)CN2C(=O)C(C)(C)c3cc(S(=O)(=O)N4CCCCC4)ccc32)cc1Cl -3.83%
Cc1c(C(=O)OCc2ccccc2)[nH]c2c1C(=O)CC(c1ccc(N(C)C)cc1)C2 (stereo unspecified) 8.28%
CCc1sc(Nc2cccc(Cl)c2)nc1-c1cc2cccc(OC)c2oc1=O -12%

outcome, inactive:
COc1ccc(NC(=O)Cn2c(=O)cc(C)c3c(C)nn(C)c32)cc1
COc1ccc(CNc2nc(-c3ccc(OC)cc3)cc(C(F)(F)F)n2)cc1
COc1ccc(NC(=O)c2cnc(Nc3ccc(C)c(Cl)c3)c3ccccc23)c(OC)c1
CCc1ccc(NC(=O)CN2CCN(C3CCCCC3)C(=O)C2=O)cc1
COc1ccc(CCN2C(=O)NC(NC(=O)c3ccccc3OC)(C(F)(F)F)C2=O)cc1OC (stereo unspecified)
Cc1ccc2oc(=O)c(S(=O)(=O)c3ccc(F)cc3)cc2c1
CCc1nc2ccc(C(=O)NCc3ccc(N(C)C)cc3)cc2nc1CC
CC(=O)Nc1ccc(NC(=O)CN2C(=O)CC(c3ccco3)Sc3ccccc32)cc1 (stereo unspecified)
CN(C(=O)c1c[nH]c2ccc(S(=O)(=O)Nc3cccc(C(F)(F)F)c3)cc2c1=O)C1CCCCC1
CCn1c(=O)cc(OCC(=O)N2CCN(c3ccc(C(C)=O)cc3)CC2)c2ccccc21
O=C(CCSCc1ccc(Cl)cc1)NCCc1ccccc1
CCCCNC(=O)CC1Nc2cc(C)c(C)cc2NC1=O (stereo unspecified)
O=C(Nc1ccc(-c2nc3ccccc3o2)c(O)c1)c1cc(Cl)ccc1Cl
CCCCc1ccc(Nc2cc(C)nc(-n3nc(C)cc3C)n2)cc1
CCN1CCc2c(sc(NC(=O)c3ccc(S(=O)(=O)N(C)C4CCCCC4)cc3)c2C(N)=O)C1
CCCCNc1nc2c(-c3cccc(C)c3)nnn2c2ccccc12
COc1cc(C(=O)N2CCNC(=O)C2CC(=O)Nc2ccc(C)c(C)c2)cc(OC)c1OC (stereo unspecified)
Cc1ccc(CNC(=O)CCc2c(C)nc3c(-c4ccc(F)cc4)c(C)nn3c2C)cc1
Cc1nn2c3c(cnc2c1-c1ccc(Cl)cc1)C(=O)CC(c1ccc(C(C)C)cc1)C3 (stereo unspecified)
COc1cccc(-n2c(SCC(=O)c3ccccc3)nc3c([nH]c4ccccc43)c2=O)c1
